# Laboratory results published in ChEMBL document CHEMBL4888484, “Replenishing the malaria drug discovery pipeline: Screening and hit evaluation of the MMV Hit Generation Library 1 (HGL1) against asexual blood stage Plasmodium falciparum ,using a nano luciferase reporter read-out” (2022).
# About 540 (0.36%) of roughly 150,000 compounds showed an effect of 50% or more. The list shows a part of the results.
# Tested on: Plasmodium falciparum
# Assay: Primary screen in NF54 nanoGlo assay, in single point, at 2uM, 72h; a lower Z score goes with more inhibition
# Format: functional, Erythrocyte
# Settings: timepoint 72 hour
SMILES,% Inhibition,Z score
O=C(CCn1cc(Cl)cn1)N1CCC2(CC1)c1ccccc1C[C@@H]2O,2%,-0.27
Cc1ccc(S(=O)(=O)Cc2noc(CC(C)C)n2)c(C)c1,-2%,0.21
CCN1[C@@H]2CCCC[C@@]2(C(=O)NCCC(C)C)CCS1(=O)=O,-17%,2.01
CCC(=O)Nc1nc2ccc(NS(=O)(=O)c3cccc4nsnc34)cc2s1,29%,-4.19
COCCN(C)C[C@H]1C[C@H](CO)CN(C(=O)c2[nH]nc(-c3ccccc3)c2C)C1,-1%,0.09
Cc1ccc2c(c1)[C@@H](NCc1cnn(C)n1)CCC2,1%,-0.16
CN(Cc1ccn(C)n1)C(=O)NCc1noc2ccc(F)cc12,4%,-0.52
OC[C@H]1CCCN(c2nnc(Cc3ccccc3)o2)C1,-3%,0.37
O=C(CN1CCOCC1)Nc1n[nH]c(Cc2cccc(F)c2)n1,-2%,0.34
Cc1cc(N2CCOC[C@H]2C(N)=O)nc(C(C)C)n1,-6%,0.55
Cc1c(-c2ccccc2)nn(C)c1NC(=O)[C@H]1CCCO1,-9%,1.69
Cc1cccc(NC(=O)C2OCC(=O)N(C)C2c2cccc(F)c2)n1 (stereo unspecified),-2%,0.24
CCNc1ccc(Cl)cc1C(=O)N1C2CCC1CC(=O)NC2 (stereo unspecified),-17%,1.8
NC[C@H]1CN(C(=O)C2(c3cccs3)CCCCC2)CCCO1,16%,-2.07
CCCc1cc(N2CC(Cc3cc(OC)cc(OC)c3)C2)n2ncnc2n1,-3%,0.46
CS(=O)(=O)NCCn1ccc(-c2cnccn2)n1,-2%,0.26
O=C(N[C@@H]1CN(Cc2c(F)cccc2F)C[C@H]1CO)C1CCC1,-6%,0.89
CCCNC(=O)CCN[C@H]1CCS(=O)(=O)c2ccc(Cl)cc21,4%,-0.46
CCn1nc(C2CC2)nc1-c1ccc(O)c(Cl)c1,0%,0.02
COc1cccc(C(=O)N2CCN(C(=O)c3cncnc3C)CC2)c1,-7%,0.66
COc1ccc(N2CCN(c3nccn4nc(-c5cccs5)cc34)CC2)cc1,30%,-0.84
N#CC(c1ccccc1)(c1ccccc1)C(C#N)(c1ccccc1)c1ccccc1,0%,-0.03

SMILES,% Inhibition,Z score
O=S(=O)(Cc1ccccc1)N1CCN(C2CCCC2)CC1,7%,-0.87
Cc1ccc(C(=O)N2CCCC(C(=O)N3CCC(C4CCOC4)C3)C2)cc1 (stereo unspecified),-6%,0.93
COc1ccc2nc(C[C@@H]3C[C@@H](C(C)C)[C@H](CNC(=O)Cn4cnnn4)C=C3C)[nH]c2n1,-5%,0.91
CC(C)CCOC(C)C(=O)N1CCCC(C)C1 (stereo unspecified),-10%,1.5
O=C(CCCN1CCCC1=O)NCc1cccc(C(F)(F)F)c1F,-3%,0.32
O=C(Nc1cccc2cc[nH]c12)N1CCC(O)(C2CCC2)CC1,-5%,1.01
Cc1nc(CN(C)C(=O)C[C@H]2CCCc3ccccc32)no1,0%,0.04
CC(C)c1ccc(C#N)c(-c2ccc(C(=O)NCCC3(O)CCCC3)cc2)n1,-12%,1.67
Cc1c(CN(C)[C@@H](C)CC(N)=O)[nH]c2ccc(Cl)cc12,-1%,0.13
O=C(CCC1CCC(C2OCCO2)O1)NCCc1ccco1 (stereo unspecified),-12%,2.25
CN1C(=O)[C@]2(CCN(S(=O)(=O)c3cccc(C#N)c3)C2)c2ccccc21,-5%,0.63
O=C(NC[C@H](O)c1cccs1)c1cccs1,-3%,0.57
N#Cc1c(N2CCC(OCCCO)CC2)nc2ccccn12,4%,-0.37
O=S(=O)(NCCc1cccc2[nH]ccc12)C1CC1,5%,-0.92
COc1c(N)cc(C(=O)O)cc1Br,-7%,1.13
CC1(C)C2CCC1(C)C(OC(=O)CN1CCCS1(=O)=O)C2 (stereo unspecified),-7%,0.98
O=C([C@@H]1CCCCN1CCC(F)(F)F)N1CCCC1,-10%,1.01
O=c1nc(NC2CC(F)(F)C2)[nH]c2[nH]ncc12,2%,-0.22
CCN(CC)CCCNC(=O)C1CCN(c2nnc(C)c3c(C)n(-c4ccc(OC)cc4)nc23)CC1,-5%,0.8
CCOC(=O)N1CCc2c(sc(NCc3ccc(OC)cc3)c2C(=O)Nc2ccc(OCC)cc2)C1,-1%,0.23
Cc1ccc(NC(=O)CC(=O)NCc2ncc[nH]2)c(C)c1,-1%,0.14
